Data taken from article PMC10164574, “Fission yeast Swi2 designates cell-type specific donor and stimulates Rad51-driven strand exchange for mating-type switching”.
These are yes or no findings as the source states them, for the method shown. Some binding calls cover weakened binding; strength is not graded here.

T1: Swi2 (1–722 aa), co-expressed and purified with Swi5 (S. pombe) (UniProt Q10668)
T1 sequence: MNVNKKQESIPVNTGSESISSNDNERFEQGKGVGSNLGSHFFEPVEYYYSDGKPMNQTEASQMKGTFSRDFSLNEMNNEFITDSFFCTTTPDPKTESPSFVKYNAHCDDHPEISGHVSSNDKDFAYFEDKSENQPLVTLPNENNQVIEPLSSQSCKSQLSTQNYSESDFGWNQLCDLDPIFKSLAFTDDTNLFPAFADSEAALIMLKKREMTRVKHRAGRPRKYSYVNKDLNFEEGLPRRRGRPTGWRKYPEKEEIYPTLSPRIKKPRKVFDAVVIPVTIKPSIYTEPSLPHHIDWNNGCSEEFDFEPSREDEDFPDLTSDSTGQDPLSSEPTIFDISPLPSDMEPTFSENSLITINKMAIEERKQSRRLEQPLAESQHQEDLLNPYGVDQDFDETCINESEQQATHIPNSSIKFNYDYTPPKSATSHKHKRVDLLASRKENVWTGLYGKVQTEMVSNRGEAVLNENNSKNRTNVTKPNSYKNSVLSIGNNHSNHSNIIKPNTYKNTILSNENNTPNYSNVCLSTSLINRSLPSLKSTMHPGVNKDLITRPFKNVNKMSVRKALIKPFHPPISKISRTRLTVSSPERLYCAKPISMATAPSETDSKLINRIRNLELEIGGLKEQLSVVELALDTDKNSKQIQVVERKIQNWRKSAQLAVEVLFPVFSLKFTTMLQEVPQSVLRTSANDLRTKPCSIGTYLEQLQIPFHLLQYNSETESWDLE

T2: Swi2C (392–722 aa) (S. pombe) (UniProt Q10668)
T2 sequence: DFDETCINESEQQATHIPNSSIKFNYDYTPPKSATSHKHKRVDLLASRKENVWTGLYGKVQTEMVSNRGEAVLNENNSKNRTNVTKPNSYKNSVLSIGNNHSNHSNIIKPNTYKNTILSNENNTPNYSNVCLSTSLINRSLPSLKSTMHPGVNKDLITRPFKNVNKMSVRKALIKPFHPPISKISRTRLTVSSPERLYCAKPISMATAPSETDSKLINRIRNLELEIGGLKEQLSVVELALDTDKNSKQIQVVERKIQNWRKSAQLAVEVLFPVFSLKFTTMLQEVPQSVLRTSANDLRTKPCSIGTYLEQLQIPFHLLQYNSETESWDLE

T3: Swi2CS (607–722 aa) (S. pombe) (UniProt Q10668)
T3 sequence: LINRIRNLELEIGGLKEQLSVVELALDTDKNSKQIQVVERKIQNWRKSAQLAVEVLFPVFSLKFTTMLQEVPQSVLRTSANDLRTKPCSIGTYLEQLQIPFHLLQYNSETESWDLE

T4: Swi2S (205–722 aa) (S. pombe) (UniProt Q10668)
T4 sequence: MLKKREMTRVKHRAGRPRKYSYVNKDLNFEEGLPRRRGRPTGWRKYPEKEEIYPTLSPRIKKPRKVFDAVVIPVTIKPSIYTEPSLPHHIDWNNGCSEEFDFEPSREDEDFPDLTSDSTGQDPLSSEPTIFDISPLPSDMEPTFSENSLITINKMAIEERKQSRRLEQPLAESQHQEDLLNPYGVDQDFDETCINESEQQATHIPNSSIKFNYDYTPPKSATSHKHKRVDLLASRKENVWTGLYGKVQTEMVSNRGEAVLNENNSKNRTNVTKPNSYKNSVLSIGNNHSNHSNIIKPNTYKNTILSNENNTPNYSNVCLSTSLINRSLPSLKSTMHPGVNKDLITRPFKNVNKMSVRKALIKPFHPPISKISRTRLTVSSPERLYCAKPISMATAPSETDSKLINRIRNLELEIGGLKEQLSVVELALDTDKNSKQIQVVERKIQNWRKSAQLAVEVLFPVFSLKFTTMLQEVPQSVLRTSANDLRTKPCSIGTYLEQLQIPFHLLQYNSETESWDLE

T5: full-length Swi6 (S. pombe) (UniProt P40381)
T5 sequence: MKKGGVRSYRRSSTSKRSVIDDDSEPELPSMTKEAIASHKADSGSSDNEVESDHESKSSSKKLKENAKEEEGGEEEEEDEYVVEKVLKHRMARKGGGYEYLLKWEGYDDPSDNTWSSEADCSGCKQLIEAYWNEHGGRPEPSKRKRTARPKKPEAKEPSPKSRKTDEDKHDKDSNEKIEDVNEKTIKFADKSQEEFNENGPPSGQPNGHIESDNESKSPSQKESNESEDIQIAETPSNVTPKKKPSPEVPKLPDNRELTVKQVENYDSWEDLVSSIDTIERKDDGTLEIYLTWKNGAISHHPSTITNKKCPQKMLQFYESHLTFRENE


Key:
[1] = target: T1, Swi2 (1–722 aa), co-expressed and purified with Swi5 (S. pombe); test: co-purification; His-SUMO-Swi2, -Swi2S, -Swi2C or -Swi2CS co-expressed with Swi5 in E. coli; Ni-NTA capture, SUMO tag cleaved by His-Ulp1, then ion-exchange and/or heparin columns and Superdex 200 gel filtration in R buffer with 200 mM NaCl
[2] = target: T2, Swi2C (392–722 aa) (S. pombe); test: as above
[3] = target: T3, Swi2CS (607–722 aa) (S. pombe); test: as above
[4] = target: T4, Swi2S (205–722 aa) (S. pombe); test: as above
[5] = target: T5, full-length Swi6 (S. pombe); test: two-hybrid; yeast two-hybrid in S. cerevisiae; Swi2 derivatives in pGADT7 against Swi6; spot tests on 2DO (SD-leu -trp, control), 3DO (HIS3 reporter) and 4DO (HIS3 and ADE2 reporters) dropout plates

| binding [5] | Binder | further results |
| --- | --- | --- |
| – | Swi5 (protein, UniProt Q9UUB7 1-85) MEKSQLESRVHLLEQQKEQLESSLQDALAKLKNRDAKQTVQKHIDLLHTYNEIRDIALGMIGKVAEHEKCTSVELFDRFGVNGSE | binding [1]: binds; binding [2]: binds; binding [3]: binds; binding [4]: binds |
| binds | Swi2 (1–280) truncation mutant (domain or fragment, UniProt Q10668 1-280) MNVNKKQESIPVNTGSESISSNDNERFEQGKGVGSNLGSHFFEPVEYYYSDGKPMNQTEASQMKGTFSRDFSLNEMNNEFITDSFFCTTTPDPKTESPSFVKYNAHCDDHPEISGHVSSNDKDFAYFEDKSENQPLVTLPNENNQVIEPLSSQSCKSQLSTQNYSESDFGWNQLCDLDPIFKSLAFTDDTNLFPAFADSEAALIMLKKREMTRVKHRAGRPRKYSYVNKDLNFEEGLPRRRGRPTGWRKYPEKEEIYPTLSPRIKKPRKVFDAVVIPVTI | – |
| no binding | Swi2 (1–260) truncation mutant (domain or fragment, UniProt Q10668 1-260) MNVNKKQESIPVNTGSESISSNDNERFEQGKGVGSNLGSHFFEPVEYYYSDGKPMNQTEASQMKGTFSRDFSLNEMNNEFITDSFFCTTTPDPKTESPSFVKYNAHCDDHPEISGHVSSNDKDFAYFEDKSENQPLVTLPNENNQVIEPLSSQSCKSQLSTQNYSESDFGWNQLCDLDPIFKSLAFTDDTNLFPAFADSEAALIMLKKREMTRVKHRAGRPRKYSYVNKDLNFEEGLPRRRGRPTGWRKYPEKEEIYPTL | – |
| binds | Swi2 full-length (pGADT7-Swi2 full-length) (protein, UniProt Q10668 1-722) MNVNKKQESIPVNTGSESISSNDNERFEQGKGVGSNLGSHFFEPVEYYYSDGKPMNQTEASQMKGTFSRDFSLNEMNNEFITDSFFCTTTPDPKTESPSFVKYNAHCDDHPEISGHVSSNDKDFAYFEDKSENQPLVTLPNENNQVIEPLSSQSCKSQLSTQNYSESDFGWNQLCDLDPIFKSLAFTDDTNLFPAFADSEAALIMLKKREMTRVKHRAGRPRKYSYVNKDLNFEEGLPRRRGRPTGWRKYPEKEEIYPTLSPRIKKPRKVFDAVVIPVTIKPSIYTEPSLPHHIDWNNGCSEEFDFEPSREDEDFPDLTSDSTGQDPLSSEPTIFDISPLPSDMEPTFSENSLITINKMAIEERKQSRRLEQPLAESQHQEDLLNPYGVDQDFDETCINESEQQATHIPNSSIKFNYDYTPPKSATSHKHKRVDLLASRKENVWTGLYGKVQTEMVSNRGEAVLNENNSKNRTNVTKPNSYKNSVLSIGNNHSNHSNIIKPNTYKNTILSNENNTPNYSNVCLSTSLINRSLPSLKSTMHPGVNKDLITRPFKNVNKMSVRKALIKPFHPPISKISRTRLTVSSPERLYCAKPISMATAPSETDSKLINRIRNLELEIGGLKEQLSVVELALDTDKNSKQIQVVERKIQNWRKSAQLAVEVLFPVFSLKFTTMLQEVPQSVLRTSANDLRTKPCSIGTYLEQLQIPFHLLQYNSETESWDLE | – |
| no binding | Swi2-V274A (protein, UniProt Q10668 1-722) MNVNKKQESIPVNTGSESISSNDNERFEQGKGVGSNLGSHFFEPVEYYYSDGKPMNQTEASQMKGTFSRDFSLNEMNNEFITDSFFCTTTPDPKTESPSFVKYNAHCDDHPEISGHVSSNDKDFAYFEDKSENQPLVTLPNENNQVIEPLSSQSCKSQLSTQNYSESDFGWNQLCDLDPIFKSLAFTDDTNLFPAFADSEAALIMLKKREMTRVKHRAGRPRKYSYVNKDLNFEEGLPRRRGRPTGWRKYPEKEEIYPTLSPRIKKPRKVFDAAVIPVTIKPSIYTEPSLPHHIDWNNGCSEEFDFEPSREDEDFPDLTSDSTGQDPLSSEPTIFDISPLPSDMEPTFSENSLITINKMAIEERKQSRRLEQPLAESQHQEDLLNPYGVDQDFDETCINESEQQATHIPNSSIKFNYDYTPPKSATSHKHKRVDLLASRKENVWTGLYGKVQTEMVSNRGEAVLNENNSKNRTNVTKPNSYKNSVLSIGNNHSNHSNIIKPNTYKNTILSNENNTPNYSNVCLSTSLINRSLPSLKSTMHPGVNKDLITRPFKNVNKMSVRKALIKPFHPPISKISRTRLTVSSPERLYCAKPISMATAPSETDSKLINRIRNLELEIGGLKEQLSVVELALDTDKNSKQIQVVERKIQNWRKSAQLAVEVLFPVFSLKFTTMLQEVPQSVLRTSANDLRTKPCSIGTYLEQLQIPFHLLQYNSETESWDLE | – |
